{
  "source": "paper PMC6329626",
  "proteins": {"B1": {"name": "recombinant human CYP3A4 (Homo sapiens) (protein)", "chain": "MALIPDLAMETWLLLAVSLVLLYLYGTHSHGLFKKLGIPGPTPLPFLGNILSYHKGFCMFDMECHKKYGKVWGFYDGQQPVLAITDPDMIKTVLVKECYSVFTNRRPFGPVGFMKSAISIAEDEEWKRLRSLLSPTFTSGKLKEMVPIIAQYGDVLVRNLRREAETGKPVTLKDVFGAYSMDVITSTSFGVNIDSLNNPQDPFVENTKKLLRFDFLDPFFLSITVFPFLIPILEVLNICVFPREVTNFLRKSVKRMKESRLEDTQKHRVDFLQLMIDSQNSKETESHKALSDLELVAQSIIFIFAGYETTSSVLSFIMYELATHPDVQQKLQEEIDAVLPNKAPPTYDTVLQMEYLDMVVNETLRLFPIAMRLERVCKKDVEINGMFIPKGVVVMIPSYALHRDPKYWTEPEKFLPERFSKKNKDNIDPYIYTPFGSGPRNCIGMRFALMNMKLALIRVLQNFSFKPCKETQIPLKLSLGGLLQPEKPVVLKVESRDGTVSGA"}},
  "substrate": "Cc1onc(-c2c(F)cccc2Cl)c1C(=O)N[C@@H]1C(=O)N2[C@@H]1SC(C)(C)[C@@H]2C(=O)O",
  "assay": "cells, lysate or membranes named",
  "conditions": "other: 100 nM CYP3A4 Supersomes, 10 min; pH 7.4; 37.0 °C",
  "data": [
    {"protein": "B1", "values": [
      {"measurement": "kcat", "value": "197 ± 9", "unit": "pmol·min^−1·nmol^−1 P450"}
    ]}
  ]
}
